In all, about 310,000 compounds went through this assay and about 14,000 (4.5%) showed an effect of 50% or more. Effects have a minus sign here. Some of the results follow.
target: human ether-à-go-go-related gene (hERG) potassium channel (human, UniProt Q12809); assay: primary screen, population patch clamp on CHO cells stably expressing hERG
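Note: peak tail current of the secondary pulse compared with the same well before compound.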

human ether-à-go-go-related gene (hERG) potassium channel, sequence (Q12809 whole entry, looked up): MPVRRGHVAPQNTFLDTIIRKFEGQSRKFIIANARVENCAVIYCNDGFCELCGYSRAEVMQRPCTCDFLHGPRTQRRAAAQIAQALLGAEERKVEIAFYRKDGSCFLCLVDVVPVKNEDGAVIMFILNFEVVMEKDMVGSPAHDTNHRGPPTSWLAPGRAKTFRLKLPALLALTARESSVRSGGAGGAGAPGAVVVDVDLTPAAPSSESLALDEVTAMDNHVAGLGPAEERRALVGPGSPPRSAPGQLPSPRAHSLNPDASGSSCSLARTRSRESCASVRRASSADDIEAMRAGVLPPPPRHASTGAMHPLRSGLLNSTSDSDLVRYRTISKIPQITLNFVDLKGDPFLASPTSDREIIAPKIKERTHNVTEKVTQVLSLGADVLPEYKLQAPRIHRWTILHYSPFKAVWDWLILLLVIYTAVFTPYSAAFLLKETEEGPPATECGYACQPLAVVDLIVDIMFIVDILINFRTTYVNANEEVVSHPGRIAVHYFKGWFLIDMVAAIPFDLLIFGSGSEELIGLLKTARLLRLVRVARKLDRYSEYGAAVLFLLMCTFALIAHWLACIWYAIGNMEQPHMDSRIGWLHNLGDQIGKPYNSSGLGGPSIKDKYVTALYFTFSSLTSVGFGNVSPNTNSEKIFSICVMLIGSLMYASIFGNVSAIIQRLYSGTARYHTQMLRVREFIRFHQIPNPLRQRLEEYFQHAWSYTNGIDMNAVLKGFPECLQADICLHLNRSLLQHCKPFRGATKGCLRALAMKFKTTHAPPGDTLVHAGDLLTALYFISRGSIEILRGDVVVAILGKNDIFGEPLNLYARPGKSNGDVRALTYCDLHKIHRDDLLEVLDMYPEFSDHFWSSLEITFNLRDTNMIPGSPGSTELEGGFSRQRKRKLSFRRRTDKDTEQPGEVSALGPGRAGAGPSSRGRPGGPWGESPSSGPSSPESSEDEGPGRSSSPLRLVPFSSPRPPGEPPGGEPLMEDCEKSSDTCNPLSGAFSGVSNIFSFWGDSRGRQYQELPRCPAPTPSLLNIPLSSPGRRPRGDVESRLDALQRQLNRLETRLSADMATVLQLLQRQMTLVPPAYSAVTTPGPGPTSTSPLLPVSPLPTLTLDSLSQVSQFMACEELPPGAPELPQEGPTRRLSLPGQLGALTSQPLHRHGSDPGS

Row | Compound | hERG current change (%, negative = inhibition) at 10uM [%]
1 | Cc1cccc(C(=O)N2CCN(c3ccc(N4CCOCC4)nn3)CC2)c1 | -25.3
2 | CC(C)CN1CN(Cc2ccccc2)CNC1=S | 3.53
3 | CCN1CCN(c2ccc(N=Cc3ccccc3O)cc2)CC1 | 18.2
4 | COC(=O)Cn1c(CN(C)Cc2ccccc2)nc2c1c(=O)n(C)c(=O)n2C | 8.05
5 | Cc1ccc(OCC(=O)N/N=C/C=C/c2ccco2)cc1 | -45.9
6 | COc1ccc(S(=O)(=O)NCCc2nnc3ccc(SCC(=O)Nc4cc(C)on4)nn23)cc1 | 8.97
7 | Cc1cc(C)c(S(=O)(=O)c2ccccc2C)c(Oc2ccccc2)n1 | -5.03
8 | CC(C(=O)N1CCCCC1)N(C)CC(=O)Nc1cccc(F)c1.O=C(O)C(=O)O (stereo not shown) | -3.44
9 | O=C(CC12CC3CC(CC(C3)C1)C2)NC(=S)N1CCCCC1 | 26.6
10 | COc1ccc(C2N(c3cc(Cl)ccc3OC)C(=O)C3CCCN32)cc1 (stereo not shown) | 2.87
11 | Cc1ccc(S(=O)(=O)NC(C)(C)CN2CCNCC2)cc1 | -9.34
12 | CCCCN1Cc2cc(C(=O)c3cc(F)ccc3O)cnc2NC1=O | -19.9
13 | CCSc1nnc(NC(=O)c2cccc(S(=O)(=O)N(C)c3ccc(C)cc3)c2)s1 | 0.388
14 | CCOc1cc(N2CCOCC2)c(OCC)cc1NC(=O)COC(=O)CCn1c(C)csc1=O | -48.9
15 | Cc1cc(C)c(C)c(S(=O)(=O)NC(C)C(=O)O)c1C (stereo not shown) | 13.2
16 | Cn1nccc1C(=O)Nc1ccc(OC(=O)c2ccnn2C)cc1 | -6.68
17 | Cc1ccc(C)c(OCc2n[nH]c(=S)o2)c1 | 10
18 | COc1ccc(CN2C(=O)c3ccccc3C2C(=O)NC2CCC(C)CC2)c(OC)c1 (stereo not shown) | 12.6
19 | COc1ccc(CNCCNC(=O)c2cccs2)c(OC)c1OC | -1.32
20 | Cc1ccc2nc(Cl)c(/C=C/C(=O)c3ccco3)cc2c1 | 9.73
21 | CCN1CCN(CCCNC(=O)CS(=O)(=O)Cc2nc(-c3ccccc3C)oc2C)CC1 | 14.7
22 | O=C(NNC(=O)c1csc(N2CCOCC2)n1)c1ccc(=O)[nH]c1 | 6.26
23 | CCCNC(=O)c1ccc(N2CCC3(CC2)CC(c2ccccc2)=NO3)c(NC(=O)Cc2ccc(F)cc2)c1 | -23.9

Row | Compound | hERG current change (%, negative = inhibition) at 10uM [%]
24 | COc1ccc(Cn2c(C)nc3ccc([N+](=O)[O-])cc3c2=O)cc1 | -20
25 | CCS(=O)(=O)N1CCC(C(=O)NCCCOC)CC1 | 10.4
26 | COc1cccc(NC(=O)Cn2nnc(C(=O)Nc3cc(Cl)ccc3OC)c2N)c1 | 28.8
27 | O=c1c2c(-c3cccs3)csc2[nH]c(=S)n1-c1ccccc1 | 8.87
28 | O=C(CN1CCN(S(=O)(=O)N2CCCCC2)CC1)Nc1cc(Cl)ccc1Cl | 10.7
29 | COc1ccc(-c2csc(N(CCCN(C)C)C(=O)c3ccc(F)cc3)n2)cc1.Cl | -58.1
30 | COc1ccc(CN(CC(=O)NCc2ccccc2)C(=O)CCC(=O)Nc2ccccn2)cc1 | -21.1
31 | Cc1cccc(-c2ccc3ncnc(NCc4cccnc4)c3c2)c1 | -70.5
32 | CCCCCCC1CC(C)(/C(C)=N/NC(N)=O)OC1=O (stereo not shown) | -50.1
33 | CCNC(=O)CSc1ncnc2sccc12 | 4.15
34 | O=C(Cn1cc(C(F)(F)F)ccc1=O)Nc1cccc(S(=O)(=O)N2CCOCC2)c1 | -16.7
35 | COc1ccc(CCNC(=O)c2c(C)nn(-c3ccccc3)c2Cl)cc1 | 0.818
36 | N#CC1=C(N)Oc2cc(N)ccc2C1C1CC=CCC1 (stereo not shown) | -10.7
37 | OCC1(Cc2ccc(Cl)cc2)CCN(CC2CC=CCC2)CC1 (stereo not shown) | -76.7
38 | O=C(NCCC1=CCCCC1)C1CCC(=O)N(Cc2ccc(Cl)cc2)C1 (stereo not shown) | -2.34
39 | NC(=O)CCC(=O)N1CCCC(C(=O)c2ccc(C(F)(F)F)cc2)C1 (stereo not shown) | 1
40 | CCC(CC)c1nnc(NC(=O)CN2C(=O)NC3(CCCC3)C2=O)s1 | 36.8
41 | COc1cccc(C(C)NC(=O)C2CCCO2)c1 (stereo not shown) | 5.03
42 | Cc1ccc(-n2nnnc2SCC(=O)NNC(=O)c2ccc([N+](=O)[O-])cc2)cc1 | 3.99
43 | CC(C)Oc1ccc(Cn2c(=O)oc3ccccc32)cc1 | 20.4
44 | COc1cc(C#Cc2ccc3cc(CCCO)oc(=O)c3c2)cc(OC)c1 | 7.23
45 | O=C(c1ccc(N2CCN(C(=O)c3ccccc3)CC2)cc1)c1cccc(F)c1 | -74.5
46 | COc1ccc(/C=C/C(=O)c2c(O)n(CCC3=CCCCC3)c(=O)[nH]c2=O)cc1 | 5.59

Row | Compound | hERG current change (%, negative = inhibition) at 10uM [%]
47 | O=C(NNc1nc2cc3c(cc2s1)OCO3)c1ccccc1 | 4.16
48 | Cc1ccc(C(=O)Nc2ccccc2C(=O)N2CC3(C)CC2CC(C)(C)C3)cc1 (stereo not shown) | -28.7
49 | Cc1ccc(Oc2nc3ccccn3c(=O)c2/C=C(\C#N)C(=O)NC2CCS(=O)(=O)C2)cc1 (stereo not shown) | -6.31
50 | O=C(COC(=O)c1cncc(Br)c1)NC1CC1 | 2.81
51 | Cc1cc(C)c(S(=O)(=O)N(C)CC(=O)NCCCn2ccnc2)c(C)c1 | -19.9
52 | COc1cccc(/C=N/NC(=O)c2ccoc2C)c1O | -12.4
53 | COc1ccc2cc(-c3ccsc3)ncc2c1 | 9.17
54 | Cn1c2c(c(=O)n(C)c1=O)C(CC(=O)Nc1ccccc1)C(=O)N2 (stereo not shown) | 2.49
55 | CCc1nn(CC(=O)NCCCN(C)Cc2ccccc2)c(=O)c2cc3sc(C)cc3n12 | -69.9
56 | Cc1ccccc1OCC(O)CN1CCC(C)CC1.Cl (stereo not shown) | -34.1
57 | CN(C)CCNC(=O)C1(O)c2cc(Br)ccc2NC(=O)N1c1ccc(Cl)cc1 (stereo not shown) | 12.2
58 | C/C(CCc1ccc2c(c1)OCO2)=N\NC(=S)NC(C)C | -59.4
59 | Cc1ccc(NC(=O)C2CCCN2C(=O)NC2CCCCC2)cc1 (stereo not shown) | 8.72
60 | Cc1cc(C(=O)NCC(=O)O)c(C)o1 | 0.446
61 | Cc1ccccc1-c1nnn(CC(=O)N(C)CC(=O)Nc2ccccc2C(F)(F)F)n1 | -7.48
62 | CC(C)(C)P(=O)(CO)c1ccccc1 (stereo not shown) | 2.45
63 | Cc1ccc(OCC(=O)c2cc(C)c(C)cc2C)c([N+](=O)[O-])n1 | 7.87
64 | Cc1ccnc(N(C(=O)Nc2ccccc2)C2=NCC(C)(C)S2)c1 | 17.5
65 | CCN1C(=O)C(CC(=O)Nc2ccc(OC)cc2)N(Cc2cccnc2)C1=S (stereo not shown) | -2.39
66 | COc1cccc(C(=O)Nc2ccc3c(c2)OCO3)c1OC | 12.1
67 | Cc1nc2ncnn2c(C)c1CCC(=O)NCc1ccc2c(c1)OCO2 | -18.2
68 | O=C1CCC([N+](=O)[O-])C(c2ccccc2C(F)(F)F)N1 (stereo not shown) | 6.42
69 | CCOc1ccccc1C(=O)NCC(=O)NCC(C)(C)N1CCOCC1 | -5.64

Row | Compound | hERG current change (%, negative = inhibition) at 10uM [%]
70 | Cc1ncc(CO)c(CO)c1O.Cl | 8.03
71 | Fc1ccc(CSc2nc3ncccc3[nH]2)cc1 | -0.198
72 | O=C1CCC(=O)N1CNc1cccnc1 | -8.73
73 | CCOc1ccccc1NC(=O)COC(=O)CNS(=O)(=O)c1ccc(C)cc1 | 17.8
74 | O=C(Cn1c(=O)n(CC(=O)NCc2ccccc2)c2ccccc21)NCc1ccccc1 | 7.83
75 | Cc1cc(S(=O)(=O)Nc2ccc(N(C)C)cc2)c(C)s1 | 0.71
76 | N#Cc1ccc(NC(=O)Nc2ccc(Cl)cc2)cc1 | 10.7
77 | COc1ccccc1C(CNC(=O)C1COc2ccccc2O1)N1CCCC1 (stereo not shown) | -11
78 | Cc1cccc(OCc2nc(C#N)c(N3CC(C)CC(C)C3)o2)c1 (stereo not shown) | -25.3
79 | [Cl-].c1ccc(COc2ccc(-c3sc(Nc4ccccc4)n[n+]3-c3ccccc3)cc2)cc1 | -43.9
80 | Cc1ccc(S(=O)(=O)Cc2c(C)noc2C)cc1 | 0.933
81 | CCN(CC)C(=O)C1CCC(CNS(=O)(=O)c2cccc3nsnc23)CC1 (stereo not shown) | 2.47
82 | CCNC(=O)c1cc(Cl)ccc1OC | -4.12
83 | Cl.Clc1ccc(CNCCC2=CCCCC2)cc1 | -40
84 | CCN1CCN(C(=O)C2CCC(CNS(=O)(=O)c3ccc(NC(C)=O)cc3)CC2)CC1 (stereo not shown) | 23.6
85 | Cc1ccc(/C=C(\C#N)C(=O)NCc2ccco2)o1 | 3.84
86 | CCOc1ccc(N2CC(C(=O)Nc3ccccc3C(=O)N3CCOCC3)CC2=O)cc1 (stereo not shown) | 7.52
87 | S=C(NCCCN1CCOCC1)N1CCN(c2nc(-c3ccc(Cl)cc3)cs2)CC1 | -5.86
88 | COc1cc2c(cc1OC)C(c1ccccc1)N(C(=O)CCl)CC2 (stereo not shown) | 7.27
89 | O=C(O)C1CCC(NSc2ccccc2[N+](=O)[O-])CC1 (stereo not shown) | 16.3
90 | Cn1c2ccccc2c2ncn(Cc3ccc(F)cc3)c(=O)c21 | 8
91 | CC(C)C(=O)Nc1cccc(NC(=O)c2cccc(Br)c2)c1 | -52.1
